Hit rate of the full screen: of about 310,000 compounds, about 14,000 (4.5%) showed an effect of 50% or more. Effects have a minus sign here. The list shows a part of the results.
These molecules were tested against human ether-à-go-go-related gene (hERG) potassium channel (human, UniProt Q12809) (assay: primary screen, population patch clamp on CHO cells stably expressing hERG).
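Note: peak tail current of the secondary pulse compared with the same well before compound.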

Chain of human ether-à-go-go-related gene (hERG) potassium channel (Q12809 whole entry, looked up): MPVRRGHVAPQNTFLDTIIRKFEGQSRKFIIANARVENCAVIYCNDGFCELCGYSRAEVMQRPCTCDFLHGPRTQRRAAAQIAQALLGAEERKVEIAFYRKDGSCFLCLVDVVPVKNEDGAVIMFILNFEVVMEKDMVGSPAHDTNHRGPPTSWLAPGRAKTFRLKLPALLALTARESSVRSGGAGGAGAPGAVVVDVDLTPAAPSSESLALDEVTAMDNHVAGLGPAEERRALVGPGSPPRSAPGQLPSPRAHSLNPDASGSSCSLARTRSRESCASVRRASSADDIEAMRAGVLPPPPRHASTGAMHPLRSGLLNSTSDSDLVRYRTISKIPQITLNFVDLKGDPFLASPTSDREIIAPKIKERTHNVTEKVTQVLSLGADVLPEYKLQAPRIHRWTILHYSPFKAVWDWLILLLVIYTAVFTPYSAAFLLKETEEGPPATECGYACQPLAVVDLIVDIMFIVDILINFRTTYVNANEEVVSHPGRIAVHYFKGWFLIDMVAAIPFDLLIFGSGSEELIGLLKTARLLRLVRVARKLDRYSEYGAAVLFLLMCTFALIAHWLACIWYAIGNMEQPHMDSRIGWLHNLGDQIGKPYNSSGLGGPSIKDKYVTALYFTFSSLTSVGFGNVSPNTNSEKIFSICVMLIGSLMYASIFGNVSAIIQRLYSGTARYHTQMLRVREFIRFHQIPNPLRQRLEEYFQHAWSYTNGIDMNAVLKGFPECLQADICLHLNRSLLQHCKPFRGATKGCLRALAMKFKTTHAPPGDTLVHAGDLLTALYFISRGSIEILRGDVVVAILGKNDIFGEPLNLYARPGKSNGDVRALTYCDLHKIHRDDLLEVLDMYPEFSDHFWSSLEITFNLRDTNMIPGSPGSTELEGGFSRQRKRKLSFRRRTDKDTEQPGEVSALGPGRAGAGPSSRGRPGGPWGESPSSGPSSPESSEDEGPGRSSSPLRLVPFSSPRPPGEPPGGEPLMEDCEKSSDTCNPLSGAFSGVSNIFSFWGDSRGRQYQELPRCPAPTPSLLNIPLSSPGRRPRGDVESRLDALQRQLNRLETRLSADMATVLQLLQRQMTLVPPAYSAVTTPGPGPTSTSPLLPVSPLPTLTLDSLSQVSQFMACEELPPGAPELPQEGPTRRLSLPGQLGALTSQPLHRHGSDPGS

SMILES | hERG current change (%, negative = inhibition) at 10uM
N/C(=C\C(=O)c1cc(Cl)ccc1O)C(Cl)(Cl)Cl | 2.52%
Cc1cc(C)c2oc(C(=O)N3CCN(C)CC3)cc(=O)c2c1 | 5.93%
COc1ccc(C(=O)NC(=S)N2CCN(c3ccccc3OC)CC2)cc1 | -21.6%
C=CCNc1nc(-c2ccc(Cl)cc2)cs1 | 0.699%
Cc1nnc(SCc2cc(=O)[nH]c(/N=C(\N)Nc3ccccc3)n2)s1 | -10%
COc1ccc(/C(CC2(O)C(=O)Nc3ccccc32)=N\O)cc1 (centres unmarked) | 14.5%
CCOC(=O)N1CCN(C(=O)CSc2nnc(-c3cc(OC)cc(OC)c3)o2)CC1 | -6.16%
CCc1ccccc1SCc1noc(C(=O)NCC2CCCO2)c1C(=O)O (centres unmarked) | 2.36%
CC(O)c1ccc(-n2cnnn2)cc1 (centres unmarked) | 20%
C=CCNC(=O)C1CC2Cn3c(nc4ccccc43)C2N1C (centres unmarked) | 8.22%
CC1(C)Oc2ccc(C(=O)NC3CCCCC3)cc2N(CC#N)C1=O | 10.6%
OCC[C@@H]1C[C@@H](O)[C@H](O)[C@@]2(Cc3ccccc3O2)O1 | 9.59%
Cc1onc(-c2ccccc2)c1C(=O)NCc1cccnc1 | 10.8%
CSc1nc2[nH]ncc2c(=O)n1-c1ccccc1 | 23.6%
Cc1cc(C)c(C#N)c(SCc2[nH]nc3c2C(c2ccc(F)cc2)C(C#N)=C(N)O3)n1 (centres unmarked) | 4.76%
O=C(c1ccccc1)N1CCN(c2ccc([N+](=O)[O-])c(NCc3cccnc3)c2)CC1 | -69.7%
COc1ccc(-c2nnc(SCC(=O)Nc3cc(S(=O)(=O)N4CCCCC4)ccc3Cl)n2N)cc1 | -34%
CN1Cc2c(N3CCOCC3)nc(SCCC#N)c(C#N)c2CC1(C)C | -2.45%
Cc1[nH]n2c(=O)c3c(nc2c1-c1ccc(Cl)cc1)CCC3 | 6.72%
Cl.NCCOc1ccccc1-c1ccccc1 | -11.1%
COc1ccc2oc(C(=O)OC(C)C(=O)N3CCC(C)CC3)c(C)c2c1 (centres unmarked) | -5.44%
Cc1cccc(N2CC(C(=O)O)CC2=O)c1C (centres unmarked) | 12.9%
Cc1cc(OCC(F)(F)C(F)(F)C(F)(F)C(F)(F)C(F)(F)C(F)F)nc(N)n1 | 8.6%
CCCNC(=O)NC(=O)CSc1ccc(C)cc1C | 13.4%
CCOC(=O)/C(=N/Nc1ccccc1)Sc1nnc(CCc2ccccc2)n1-c1ccccc1 | 4.71%
CCCn1nnc(NC(=O)/C=C/c2ccc(C(C)C)cc2)n1 | 0.724%

— paper PMC4336329 (PLoS ONE, 2015)
